The results in this text go back to the antibiotic and cytotoxicity screens of Wong et al. (2023).

Molecules are shown by their SMILES. This is one part of the list.

The test system of the test is S. aureus RN4220. The test is described as follows: growth inhibition call (relative growth <= 0.2). The note with it: 50 µM.
Turning to `CC1(C)S[C@@H]2[C@H](NC(=O)[C@H](N)c3ccc(O)cc3)C(=O)N2[C@H]1C(=O)O`, the growth inhibition call was “active”. On to `Cc1noc(C)c1NC(=O)Nc1ccc2c(c1)C(=O)N([C@H](C)CO)C[C@H](C)[C@H](CN(C)S(=O)(=O)c1ccc(F)cc1)OCCCC[C@H](C)O2`, for which the growth inhibition call is “inactive”.

Turning to `C[C@@H]1CCCCO[C@H](CN(C)S(=O)(=O)c2cccs2)[C@@H](C)CN([C@@H](C)CO)C(=O)c2cc(NS(=O)(=O)c3cn(C)cn3)ccc2O1`, the growth inhibition call was “inactive”.

Turning to `COc1ccc(NC(=O)N(C)C[C@H]2OCCCC[C@H](C)Oc3ccc(NC(=O)Nc4ccc(F)cc4)cc3C(=O)N([C@@H](C)CO)C[C@H]2C)cc1`, the growth inhibition call is “inactive”. The result for `Cc1ccc(S(=O)(=O)N(C)C[C@@H]2Oc3ccc(NC(=O)CCCN(C)C)cc3CC(=O)N([C@H](C)CO)C[C@H]2C)cc1` reads “inactive”; that for `CC(/C=C/C(=O)NO)=C\c1ccccc1OCc1cn(CC[C@@H]2OC(=O)[C@H](Cc3ccccc3)N3CC4=C[C@@H](C5CC5)n5c(=O)n(C)c(=O)n5[C@H]4[C@H]23)nn1`, “inactive”; that for `COc1ccc(COCC23Oc4ccccc4[C@H]([C@H]2CO)n2c(c4c(c(C(C)=O)c2=O)C(=O)N(C)C4=O)N3C)cc1`, “inactive”. The result for `COc1ccc(CN(C)C[C@H]2OCCCC[C@H](C)Oc3ccc(NC(=O)Nc4ccc(F)cc4)cc3C(=O)N([C@@H](C)CO)C[C@@H]2C)cc1` reads “inactive”. Regarding `Cc1ccc(S(=O)(=O)Nc2ccc3c(c2)C(=O)N([C@H](C)CO)C[C@H](C)[C@H](CN(C)C(=O)CCC(F)(F)F)OCCCC[C@@H](C)O3)cc1`, the growth inhibition call was “inactive”.

With `Cn1cnc(S(=O)(=O)N[C@H]2CC[C@H](CC(=O)NCC3CC3)O[C@@H]2CO)c1`, the growth inhibition call was “inactive”. Under `C[C@@H]1CCCCO[C@@H](CN(C)Cc2ccc3c(c2)OCO3)[C@@H](C)CN([C@@H](C)CO)C(=O)c2cc(NC(=O)C3CCCCC3)ccc2O1` stands “inactive”; under `O=c1[nH]c(=O)n(C2CC(O)C(CO)O2)cc1C(F)(F)F` (configuration not stated), “inactive”. Under `C[C@@H]1CN([C@@H](C)CO)C(=O)c2cccc(NC(=O)Nc3cccc4ccccc34)c2O[C@@H]1CN(C)S(=O)(=O)c1ccc(Cl)cc1` stands “inactive”. Under `COc1ccc(CN(C)C[C@@H]2OCCCC[C@@H](C)Oc3ccc(NS(=O)(=O)c4ccc(OC)cc4)cc3C(=O)N([C@@H](C)CO)C[C@H]2C)cc1` stands “inactive”; under `Cc1noc(C)c1NC(=O)Nc1ccc2c(c1)C(=O)N([C@@H](C)CO)C[C@H](C)[C@@H](CN(C)C(=O)NC(C)C)O2`, “inactive”. `COc1ccc(CN(C)C[C@@H]2OCCCC[C@H](C)Oc3ccc(NC(=O)Nc4ccc(F)cc4)cc3C(=O)N([C@H](C)CO)C[C@H]2C)cc1`: the growth inhibition call is “inactive”. Under `C[C@@H]1CN([C@H](C)CO)C(=O)Cc2cc(NC(=O)C3CC3)ccc2O[C@H]1CN(C)Cc1ccc(C(=O)O)cc1` stands “inactive”. Under `COc1cc2c(cc1OC)CN(C(=O)[C@H]1[C@@H]3C(=O)O[C@@H](c4ccccc4)[C@@H](c4ccccc4)N3[C@@H](c3ccccc3OCCO)[C@]13C(=O)Nc1ccc(C#CC4(O)CCCCCC4)cc13)CC2` stands “inactive”; under `C[C@H](CO)N1C[C@H](C)[C@H](CN(C)C(=O)c2ccncc2)Oc2cc(C#C[C@@H](C)O)ccc2S1(=O)=O`, “inactive”. `Cc1ccc(N2C(=O)c3ccccc3[C@](C)(C(=O)NCCN3CCOCC3)[C@@H]2c2ccc(CO)cc2)nc1`: the growth inhibition call is “inactive”. In the case of `NC(=O)COc1ccccc1`, the growth inhibition call is “inactive”. The result for `C[C@@H]1CN([C@@H](C)CO)C(=O)Cc2cc(NC(=O)NC3CCCCC3)ccc2O[C@H]1CN(C)Cc1ccc(Oc2ccccc2)cc1` reads “inactive”; that for `COc1ccc([Si](C)(C)[C@H]2[C@H](CC(=O)N3Cc4ccccc4C[C@H]3CO)O[C@@]3(C(=O)N(Cc4cccc(N5CCOC5=O)c4)c4ccccc43)[C@@H]2C)cc1`, “inactive”. The result for `C[C@H]1CCCCO[C@@H](CN(C)CC2CC2)[C@@H](C)CN([C@@H](C)CO)C(=O)c2cc(NC(=O)Nc3ccc(F)cc3)ccc2O1` reads “inactive”; that for `O=C(C[C@@H]1C[C@@H]2c3cc(NC(=O)NC4CCCC4)ccc3O[C@@H]2[C@@H](CO)O1)NCCN1CCCCC1`, “inactive”.

`C[C@H](CO)N1C[C@H](C)[C@H](CN(C)Cc2ccc3c(c2)OCO3)OCCCC[C@H](C)Oc2ccc(NC(=O)c3ccccc3)cc2C1=O`: the growth inhibition call is “inactive”. The result for `C[C@@H]1CCCCO[C@@H](CN(C)Cc2ccc3c(c2)OCO3)[C@H](C)CN([C@H](C)CO)C(=O)c2cc(NS(=O)(=O)c3ccc(F)cc3)ccc2O1` reads “inactive”.
